Source: PMC10726135
The other results are listed elsewhere or left out. At the low end of the ranking the order means little. The protein was read in a cell extract, so binding may be indirect.

The sequences below were run against T1, HNF4alpha2 (COS-7 nuclear extract) (UniProt P41235) (assay: protein-binding microarray). Details: COS-7 nuclear extract on double-stranded Agilent 4x180k PBM; binding buffer, salt, pH and temperature not given; high values mean tight binding; double strand, one strand shown; sequences stand for … in …GCCTAGGGAGATTAGAGTATCGGTCGA.
T1 sequence: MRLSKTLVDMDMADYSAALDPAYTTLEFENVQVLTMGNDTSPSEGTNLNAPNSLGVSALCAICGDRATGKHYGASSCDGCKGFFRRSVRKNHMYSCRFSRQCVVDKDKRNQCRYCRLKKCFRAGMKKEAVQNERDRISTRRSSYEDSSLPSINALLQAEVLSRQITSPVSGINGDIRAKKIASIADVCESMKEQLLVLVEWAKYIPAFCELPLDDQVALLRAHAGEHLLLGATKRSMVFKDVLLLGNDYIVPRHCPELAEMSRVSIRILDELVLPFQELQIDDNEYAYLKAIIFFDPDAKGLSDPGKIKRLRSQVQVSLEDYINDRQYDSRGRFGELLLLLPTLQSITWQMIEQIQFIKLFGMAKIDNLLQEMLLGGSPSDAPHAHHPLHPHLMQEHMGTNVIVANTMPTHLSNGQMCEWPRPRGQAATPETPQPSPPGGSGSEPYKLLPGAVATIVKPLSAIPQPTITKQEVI

Sequence	binding signal (log2 normalized intensity)
TGTCTCTTCTTGTACCTCTGGTGATTACCA	1.21
GGGCTGGTTGGCACGCTTAGGGAACAAAGG	1.25
ATACACACACACCCCTCCACTGGACAGCAG	2.12
ATGAAGCTAAAAGAAGTCCAAGGACTTATC	-1.02
AGTCTGGAAGTTGAATTCCTTCTTCTTCTG	0.0469
ATTCAACAGAGCTATTTTAGGGTAAAGATC	0.786
ATTTATTACAGAGAGGGGGAGTGAAGGTTA	-0.169
TAGCCTATCAGAAGAATCTGTATCAGCCTG	-1.09
AGATAAGGCTAGTAACACTCACATTCCACG	-1.05
CACCAGCTTCTTCTCTTTGACAAAAAATGA	1.1
CCTGGTAGTGCGACAAGAATGTGGTTCTTT	1.43
CCAGCCTGTCGGAATTTGCCCTGTGGTCTA	2.78
TCCCCCTGCCCTTCGTCCTGAGCAGTCCCT	2.4
CTAGGGGGCACCTCTGAAAGCACTTGTAGG	-0.691
GGAATTCTTCACCAAATCATTTCACTTCCT	-1.26
GCCTTCCCCGCCCGCAGCCCAGTCTTGGCC	3.99
TAAAAATTAGCTGAACATGGTGACACACAC	-1.14
CCACCCTGGCAGAGGAAAAAGTCCCTGGTC	-1.03
GACCTTTGACCTTTATACCTGTACGTTACT	7.39
TACTGGGGATGGACTTTGGCCCTCAGCCCA	8.56

Sequence	binding signal (log2 normalized intensity)
CCTTATCAGAAGGAAAGTCTCCCTCCCTTT	1.9
GATCATCTTCACCTGCCCTGAGTCCAGCCT	1.39
TTATCTGGGCCAGGTATTTGGACTTTTTGT	4.22
GATCTGGGTGTGCCATTCTTCCAGTTGTGT	1.84
GTTGAGGAGTTTGTACTTTATCCTACAAGG	2.25
AAAATATGGACTTTGGAATTAAGAAAAGCT	5.25
GACCTTGGAATGTCAAGATTGAGACATTCA	-0.182
TGGATCTTGAAGCAGAAAACCACTGTGCTC	-1.07
AGGAGGGACTGAACAGATATTGGCCAAAGG	0.0556
GAAAAGGCCTGACCTTTGCCCTCTGGCCCT	9.1
CAAGGGCTTACAACTCTAAGGGGGAAAGTC	-1.09
ACTCTTATCAGACAGGATATTTTGAGGGCT	-1.01
CACCTGCCCTCAGGGAGCTCCAGCACTGGG	-0.977
CGTCGCTGAGTGGAGGCCCAGTAAGTCCCA	0.00706
ATATTCACTATCTGATCCTTTACAGAGATA	-0.305
TACACAGAAGTTAATTTCAAAACAAATAAA	-1.11
AAAGATAATATTTTTGACTTACCATTTGCT	-1.09
GGTGGACCAAAACACTTGTGTCAACCGTGT	0.709
TGCAACCAGTTGGTGGGTCAAGGTGCAAAG	3
CTCCCCACAAATTCTGTACTTCAACCAGGT	1.85
